The list shows a part of the results.

This experiment deals with T1, MBP-FoxP1dN (Mus musculus, UniProt P58462 326-579).
T1 sequence: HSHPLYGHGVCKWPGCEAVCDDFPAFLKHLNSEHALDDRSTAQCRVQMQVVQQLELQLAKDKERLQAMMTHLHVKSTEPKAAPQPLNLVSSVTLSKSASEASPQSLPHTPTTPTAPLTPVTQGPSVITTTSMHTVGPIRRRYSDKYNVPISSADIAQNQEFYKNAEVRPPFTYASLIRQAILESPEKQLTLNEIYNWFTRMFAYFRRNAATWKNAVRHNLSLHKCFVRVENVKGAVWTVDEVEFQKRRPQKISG
Briefly: PD-seq (MBP pull-down with sequencing); 20 mM Tris-HCl pH 7.5, 100 mM NaCl, 1.5 mM MgCl2, 0.4 uM protein, 0.1 uM dsDNA library, 30 min, room temperature, amylose pull-down; high values mean tight binding. The conditions noted are these: protein: recombinant; tags: His6-MBP; chain copies: 2; dsDNA, one strand shown. In short, it runs like this: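 The N-terminus-lacking fragment of mouse FoxP3 or FoxP1 carried a His6-MBP tag and was expressed in E. coli. At 0.4 µM it was incubated with 0.1 µM Klenow-filled degenerate double-stranded DNA library for 30 min at room temperature in Tris pH 7.5 buffer with NaCl and MgCl2, and complexes were caught on amylose resin, washed three times, released with proteinase K, PCR-barcoded and Illumina-sequenced. Binding is reads-per-million enrichment of pull-down over input with replicates pooled.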
For “GATGATTGTTCTCCCAGCTGATGAATTAGCCGGCTCGAGTAAACAAATTTTCCTAATCTTTCTGTTCAAGCGCCATCTAC”, the binding signal is 0.727 RPM ratio (pull-down/input).

Regarding “GATGATTGTTCTCCCAGCTGATGAATTTCTGGGTTCGAGTAAACAAATTTTCCTAATCTTTCTGTTCAAGCGCCATCTAC”, the binding signal was 0.74 RPM ratio (pull-down/input).

Regarding “GATGATTGTTCTCCCAGCTGATGAATTGTCAGCCTCGAGTAAACAAATTTTCCTAATCTTTCTGTTCAAGCGCCATCTAC”, the binding signal was 0.917 RPM ratio (pull-down/input).

For the sequence “GATGATTGTTCTCCCAGCTGATGAATTGTACGCTTCGAGTAAACAAATTTTCCTAATCTTTCTGTTCAAGCGCCATCTAC”, the binding signal was 1.02 RPM ratio (pull-down/input).

Regarding “GATGATTGTTCTCCCAGCTGATGAATTCGCGGTTTCGAGTAAACAAATTTTCCTAATCTTTCTGTTCAAGCGCCATCTAC”, the binding signal is 0.843 RPM ratio (pull-down/input). On to “GATGATTGTTCTCCCAGCTGATGAATTGTCGCTATCGAGTAAACAAATTTTCCTAATCTTTCTGTTCAAGCGCCATCTAC”, for which the binding signal is 1.11 RPM ratio (pull-down/input). The figure for “GATGATTGTTCTCCCAGCTGATGAATTTAACAATTCGAGTAAACAAATTTTCCTAATCTTTCTGTTCAAGCGCCATCTAC” is 1.01 RPM ratio (pull-down/input); for “GATGATTGTTCTCCCAGCTGATGAATTTCCACAATCGAGTAAACAAATTTTCCTAATCTTTCTGTTCAAGCGCCATCTAC” it is 1.2 RPM ratio (pull-down/input).

Regarding “GATGATTGTTCTCCCAGCTGATGAATTGCAGAACTCGAGTAAACAAATTTTCCTAATCTTTCTGTTCAAGCGCCATCTAC”, the binding signal was 1.06 RPM ratio (pull-down/input). “GATGATTGTTCTCCCAGCTGATGAATTTCCATATTCGAGTAAACAAATTTTCCTAATCTTTCTGTTCAAGCGCCATCTAC”: the binding signal is 0.917 RPM ratio (pull-down/input). In the case of “GATGATTGTTCTCCCAGCTGATGAATTCCACATGTCGAGTAAACAAATTTTCCTAATCTTTCTGTTCAAGCGCCATCTAC”, the binding signal was 0.875 RPM ratio (pull-down/input). As for “GATGATTGTTCTCCCAGCTGATGAATTCCATCGATCGAGTAAACAAATTTTCCTAATCTTTCTGTTCAAGCGCCATCTAC”, the binding signal was 0.854 RPM ratio (pull-down/input). In the case of “GATGATTGTTCTCCCAGCTGATGAATTCTGCCGCTCGAGTAAACAAATTTTCCTAATCTTTCTGTTCAAGCGCCATCTAC”, the binding signal is 0.816 RPM ratio (pull-down/input). For the sequence “GATGATTGTTCTCCCAGCTGATGAATTGTGGCTATCGAGTAAACAAATTTTCCTAATCTTTCTGTTCAAGCGCCATCTAC”, the binding signal was 1.1 RPM ratio (pull-down/input).

Regarding “GATGATTGTTCTCCCAGCTGATGAATTGGGATGATCGAGTAAACAAATTTTCCTAATCTTTCTGTTCAAGCGCCATCTAC”, the binding signal was 0.921 RPM ratio (pull-down/input). The figure for “GATGATTGTTCTCCCAGCTGATGAATTATGCCATTCGAGTAAACAAATTTTCCTAATCTTTCTGTTCAAGCGCCATCTAC” is 1.11 RPM ratio (pull-down/input). Take “GATGATTGTTCTCCCAGCTGATGAATTATCAGAATCGAGTAAACAAATTTTCCTAATCTTTCTGTTCAAGCGCCATCTAC”: the binding signal was 1.03 RPM ratio (pull-down/input). Consider “GATGATTGTTCTCCCAGCTGATGAATTCTCTCCCTCGAGTAAACAAATTTTCCTAATCTTTCTGTTCAAGCGCCATCTAC”, for which the binding signal is 0.835 RPM ratio (pull-down/input). Consider “GATGATTGTTCTCCCAGCTGATGAATTTCTAACGTCGAGTAAACAAATTTTCCTAATCTTTCTGTTCAAGCGCCATCTAC”, for which the binding signal was 0.955 RPM ratio (pull-down/input). For “GATGATTGTTCTCCCAGCTGATGAATTGTGCTAGTCGAGTAAACAAATTTTCCTAATCTTTCTGTTCAAGCGCCATCTAC”, the binding signal was 1.06 RPM ratio (pull-down/input). Consider “GATGATTGTTCTCCCAGCTGATGAATTATTGATGTCGAGTAAACAAATTTTCCTAATCTTTCTGTTCAAGCGCCATCTAC”, for which the binding signal is 1.85 RPM ratio (pull-down/input).

Take “GATGATTGTTCTCCCAGCTGATGAATTCTTACACTCGAGTAAACAAATTTTCCTAATCTTTCTGTTCAAGCGCCATCTAC”: the binding signal is 0.933 RPM ratio (pull-down/input). In the case of “GATGATTGTTCTCCCAGCTGATGAATTCTCCTGTTCGAGTAAACAAATTTTCCTAATCTTTCTGTTCAAGCGCCATCTAC”, the binding signal is 0.847 RPM ratio (pull-down/input). With “GATGATTGTTCTCCCAGCTGATGAATTCAGCAGTTCGAGTAAACAAATTTTCCTAATCTTTCTGTTCAAGCGCCATCTAC”, the binding signal was 0.816 RPM ratio (pull-down/input). Turning to “GATGATTGTTCTCCCAGCTGATGAATTGCGCTAGTCGAGTAAACAAATTTTCCTAATCTTTCTGTTCAAGCGCCATCTAC”, the binding signal is 1.06 RPM ratio (pull-down/input). Turning to “GATGATTGTTCTCCCAGCTGATGAATTCGCGTTGTCGAGTAAACAAATTTTCCTAATCTTTCTGTTCAAGCGCCATCTAC”, the binding signal is 1.08 RPM ratio (pull-down/input).

“GATGATTGTTCTCCCAGCTGATGAATTTTCTGTGTCGAGTAAACAAATTTTCCTAATCTTTCTGTTCAAGCGCCATCTAC”: the binding signal is 0.968 RPM ratio (pull-down/input). As to “GATGATTGTTCTCCCAGCTGATGAATTTTGAGGCTCGAGTAAACAAATTTTCCTAATCTTTCTGTTCAAGCGCCATCTAC”, the binding signal was 0.901 RPM ratio (pull-down/input). The figure for “GATGATTGTTCTCCCAGCTGATGAATTTTGGGCGTCGAGTAAACAAATTTTCCTAATCTTTCTGTTCAAGCGCCATCTAC” is 0.936 RPM ratio (pull-down/input). Take “GATGATTGTTCTCCCAGCTGATGAATTACGGAGGTCGAGTAAACAAATTTTCCTAATCTTTCTGTTCAAGCGCCATCTAC”: the binding signal was 0.909 RPM ratio (pull-down/input). As for “GATGATTGTTCTCCCAGCTGATGAATTCCAATTCTCGAGTAAACAAATTTTCCTAATCTTTCTGTTCAAGCGCCATCTAC”, the binding signal was 0.895 RPM ratio (pull-down/input).

“GATGATTGTTCTCCCAGCTGATGAATTAAGCGGCTCGAGTAAACAAATTTTCCTAATCTTTCTGTTCAAGCGCCATCTAC”: the binding signal was 0.738 RPM ratio (pull-down/input).
